For one molecule, binding results are on record in publication PMC6042961.

Assay in all cases: co-IP; lysates in 1% Triton X-100, 150 mM NaCl, 50 mM Tris-HCl pH 7.5; anti-HA or anti-V5 magnetic beads 1 hr at 4°C; wash with 300 mM NaCl; western blot; HEK293T cells (wild type, ADAM17 KO, FRMD8 KO, or iRhom1/2 DKO reconstituted with iRhom2^WT-3xHA; with or without 200 nM PMA for 30 min)
On the technique in general: Immunoblotting shows a protein as a band on a membrane.

Test [1] deals with T1, human iRhom2^Δ382-3xHA (human) (UniProt Q6PJF5).
T1 sequence: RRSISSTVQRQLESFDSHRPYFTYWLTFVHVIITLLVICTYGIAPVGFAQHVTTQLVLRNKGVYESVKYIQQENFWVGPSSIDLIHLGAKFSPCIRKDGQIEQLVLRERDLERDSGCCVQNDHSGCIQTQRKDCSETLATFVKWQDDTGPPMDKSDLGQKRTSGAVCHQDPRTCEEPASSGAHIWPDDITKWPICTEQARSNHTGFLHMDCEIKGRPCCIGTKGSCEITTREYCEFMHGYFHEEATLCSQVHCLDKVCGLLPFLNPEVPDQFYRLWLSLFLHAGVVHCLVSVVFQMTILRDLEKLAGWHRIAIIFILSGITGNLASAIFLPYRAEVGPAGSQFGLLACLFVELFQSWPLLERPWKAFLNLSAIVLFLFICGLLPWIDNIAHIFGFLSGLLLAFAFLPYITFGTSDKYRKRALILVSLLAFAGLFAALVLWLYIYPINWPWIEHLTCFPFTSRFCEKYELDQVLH

For test [2], the target named is T2, human iRhom1-3xHA (human) (UniProt Q96CC6).
T2 sequence: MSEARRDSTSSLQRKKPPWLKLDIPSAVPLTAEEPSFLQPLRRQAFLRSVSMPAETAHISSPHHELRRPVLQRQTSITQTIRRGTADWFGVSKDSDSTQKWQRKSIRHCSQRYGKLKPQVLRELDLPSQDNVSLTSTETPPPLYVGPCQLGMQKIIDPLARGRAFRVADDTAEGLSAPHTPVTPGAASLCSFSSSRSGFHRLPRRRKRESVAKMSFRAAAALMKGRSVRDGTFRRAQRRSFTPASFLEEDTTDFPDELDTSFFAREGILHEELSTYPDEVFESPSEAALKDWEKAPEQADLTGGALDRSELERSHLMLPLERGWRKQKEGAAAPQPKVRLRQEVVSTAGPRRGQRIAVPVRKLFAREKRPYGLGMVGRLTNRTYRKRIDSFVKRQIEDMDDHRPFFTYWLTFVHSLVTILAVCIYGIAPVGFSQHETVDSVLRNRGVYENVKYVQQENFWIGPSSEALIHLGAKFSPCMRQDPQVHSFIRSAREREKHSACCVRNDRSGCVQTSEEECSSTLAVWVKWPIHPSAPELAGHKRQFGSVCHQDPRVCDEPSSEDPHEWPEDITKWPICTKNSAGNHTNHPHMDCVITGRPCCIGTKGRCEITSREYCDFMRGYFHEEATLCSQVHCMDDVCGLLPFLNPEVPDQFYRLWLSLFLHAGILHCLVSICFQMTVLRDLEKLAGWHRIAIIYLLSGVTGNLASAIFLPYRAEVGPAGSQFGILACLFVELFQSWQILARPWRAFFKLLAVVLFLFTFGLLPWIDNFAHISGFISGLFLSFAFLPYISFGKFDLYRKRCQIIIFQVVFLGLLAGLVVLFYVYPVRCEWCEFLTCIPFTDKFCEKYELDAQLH

Test [3] addresses T3, human iRhom2-3xHA (human) (UniProt Q6PJF5).
T3 sequence: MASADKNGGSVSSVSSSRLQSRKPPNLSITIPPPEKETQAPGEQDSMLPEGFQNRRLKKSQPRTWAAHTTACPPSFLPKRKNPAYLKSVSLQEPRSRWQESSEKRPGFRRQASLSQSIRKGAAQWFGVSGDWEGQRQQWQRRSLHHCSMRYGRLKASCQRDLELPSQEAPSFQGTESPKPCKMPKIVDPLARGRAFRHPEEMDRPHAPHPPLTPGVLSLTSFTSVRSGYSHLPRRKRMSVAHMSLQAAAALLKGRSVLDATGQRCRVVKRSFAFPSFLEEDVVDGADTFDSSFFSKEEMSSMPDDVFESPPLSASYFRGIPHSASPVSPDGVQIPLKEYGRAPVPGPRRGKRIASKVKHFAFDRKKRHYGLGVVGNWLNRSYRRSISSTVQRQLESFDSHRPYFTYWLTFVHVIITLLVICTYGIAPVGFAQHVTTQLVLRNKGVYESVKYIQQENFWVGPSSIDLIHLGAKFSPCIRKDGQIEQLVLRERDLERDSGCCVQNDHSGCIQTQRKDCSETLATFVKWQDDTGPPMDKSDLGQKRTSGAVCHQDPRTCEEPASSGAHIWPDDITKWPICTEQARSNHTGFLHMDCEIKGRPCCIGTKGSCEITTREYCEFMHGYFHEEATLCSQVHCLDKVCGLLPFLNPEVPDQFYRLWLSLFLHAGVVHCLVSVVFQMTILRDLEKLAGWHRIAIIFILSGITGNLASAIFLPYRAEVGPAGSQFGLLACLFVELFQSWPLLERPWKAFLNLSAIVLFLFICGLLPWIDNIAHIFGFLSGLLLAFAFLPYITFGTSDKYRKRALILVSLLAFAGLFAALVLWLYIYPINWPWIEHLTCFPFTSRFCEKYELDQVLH

These are yes or no findings as the source states them, for the method shown. In cells and extracts the contact can be indirect. Some results given as binding are weak or reduced against the parent protein; the word gives no strength. Tags and fused reporters may be left off the sequences shown.

B1: human FRMD8-V5 (protein, UniProt Q9BZ67-1 1-464)
chain: MDGTEGSAGQPGPAERSHRSSVSSVGARAADVLVYLADDTVVPLAVENLPSLSAHELHRAVREVLQLPDIALDVFALWLVSPLLEVQLKPKHQPYKLGRQWPELLLRFTSAPDDDVAMDEPFLQFRRNVFFPKRRELQIHDEEVLRLLYEEAKGNVLAARYPCDVEDCEALGALVCRVQLGPYQPGRPAACDLREKLDSFLPAHLCKRGQSLFAALRGRGARAGPGEQGLLNAYRQVQEVSSDGGCEAALGTHYRAYLLKCHELPFYGCAFFHGEVDKPAQGFLHRGGRKPVSVAISLEGVHVIDSREKHVLLGLRFQELSWDHTSPEEEEPILWLEFDGDSEGTPVNKLLKIYSKQAELMSSLIEYCIELSQAAEPAGPQDSATGSPSDPSSSLAPVQRPKLRRQGSVVSSRIQHLSTIDYVEDGKGIRRVKPKRTTSFFSRQLSLGQGSYTVVQPGDSLEQG
For B1, the binding result in test [1] is given as “no binding”; in test [2], “binds”; in test [3], “binds”.
